Test results from article PMC7819943, “Rice protein-binding microarrays: a tool to detect cis-acting elements near promoter regions in rice”.
The other results are listed elsewhere or left out.

Each sequence was assayed against T1, OsWOX13 (Oryza sativa, UniProt Q5QMM3 1-267) (assay: protein-binding microarray (RPBM); PBS, 2% BSA, 51.3 ng/ul salmon testes DNA, 50 uM zinc acetate, 200 nM TF, 25 C, 1 h; high values mean tight binding). Settings: protein: recombinant; tags: N-terminal polyhistidine and DsRed monomer fusion (pET32a); label: CyDye5-dUTP incorporated in the synthesized complementary strand; 3' TTTTT single-stranded linker to array surface; dsDNA, one strand shown.
T1 sequence: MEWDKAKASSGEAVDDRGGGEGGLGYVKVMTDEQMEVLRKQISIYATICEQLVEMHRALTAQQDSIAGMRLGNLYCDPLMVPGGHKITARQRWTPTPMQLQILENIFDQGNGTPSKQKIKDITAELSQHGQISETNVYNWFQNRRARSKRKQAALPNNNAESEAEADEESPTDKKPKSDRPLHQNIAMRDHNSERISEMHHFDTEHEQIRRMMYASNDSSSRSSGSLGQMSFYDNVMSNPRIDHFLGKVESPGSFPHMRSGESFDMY
Summary of the method: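 Binding signal is defined as the fluorescence intensity of each feature in arbitrary units, read on an Axon 4000B scanner. Transcription factors with N-terminal polyhistidine and DsRed fusions came from E. coli BL21-CodonPlus and were purified on Ni–NTA. They were incubated at 200 nM for 1 h at 25 °C on a custom Agilent array that had been made double-stranded with Cy5-dUTP, with 50 µM zinc acetate present, and the array was washed.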

Sequence | binding signal
GCAATTATTGGCCATTACTAGTTATGCAAGGTAGAAGTGTCGGAGTCACCTAGTGCAG | 5660 fluorescence intensity (a.u.)
TTATCAAATCAATAATTAAATATATTTTCATAATAAATTTCGGAGTCACCTAGTGCAG | 4020 fluorescence intensity (a.u.)
CGCTCGATTAGTGATTACCCGCTCAAACTCCCGCAACGTTCGGAGTCACCTAGTGCAG | 15100 fluorescence intensity (a.u.)
ATATATTCAACACGTACGTTAATTTACGGTCAAACTTTGCCGGAGTCACCTAGTGCAG | 3530 fluorescence intensity (a.u.)
GTTAGAGATAATTGCAATTGTTATCACATGCCTTTCTAATCGGAGTCACCTAGTGCAG | 13800 fluorescence intensity (a.u.)
CTCTTAATAATTAGGGACCAGTCCGCCGTATCGGCGTTTACGGAGTCACCTAGTGCAG | 4030 fluorescence intensity (a.u.)
TGTCTGCTACTGCTTTGATTGATAGTGGCAGCACCTCAACCGGAGTCACCTAGTGCAG | 15300 fluorescence intensity (a.u.)
GATATGAGTGACTAATTGACTTTGTGTTGATTTCGAGCAGCGGAGTCACCTAGTGCAG | 34600 fluorescence intensity (a.u.)
CGGAATATAATCTATCATTAGCTCTGCCATCCAATAATCCCGGAGTCACCTAGTGCAG | 3910 fluorescence intensity (a.u.)
GTTAATTGATTAGCAAAAGGTACTATACATATATTCTTTTCGGAGTCACCTAGTGCAG | 33800 fluorescence intensity (a.u.)
ATAGATTGAGTTGAGCCTGATCCCGTCTCTACTTTCTCCTCGGAGTCACCTAGTGCAG | 34000 fluorescence intensity (a.u.)
AATGTGATGACTGGACTGCCATGTCAGCCAATATCACCTTCGGAGTCACCTAGTGCAG | 9860 fluorescence intensity (a.u.)
CAGATAGATGGATAGTACTACTACTAGTAGTAATACAAACCGGAGTCACCTAGTGCAG | 5100 fluorescence intensity (a.u.)
TTACAAAACTAATTACATAAATGAAAGCTAATTCGGGAGGCGGAGTCACCTAGTGCAG | 8650 fluorescence intensity (a.u.)
AGGTTGCAATCATTGGCCAGACGTTGCATGTCGTTGTTGACGGAGTCACCTAGTGCAG | 13700 fluorescence intensity (a.u.)
TCAGAATTGGAGAGAAATTAAACTGAGTTTTGGTGTTCCACGGAGTCACCTAGTGCAG | 5000 fluorescence intensity (a.u.)
ATCGTTGATTACCTACCAATTGATTATGGAAATAAATTAACGGAGTCACCTAGTGCAG | 22900 fluorescence intensity (a.u.)
AACCAATCAAACCCATCCACTTAGATCCAGAAAGTCAAATCGGAGTCACCTAGTGCAG | 7920 fluorescence intensity (a.u.)
TTATGACTATTTAAATTTAAATCATATCAACTTATATAAACGGAGTCACCTAGTGCAG | 10700 fluorescence intensity (a.u.)
CTCACCTACCGCATCTGTGTTCCTTTTGCTTTCTTTCTTTCGGAGTCACCTAGTGCAG | 3220 fluorescence intensity (a.u.)
TATTTAATACTTCTAATTAGTATCAAACATCCGATATGACCGGAGTCACCTAGTGCAG | 8000 fluorescence intensity (a.u.)
ACTGATGAATGAAGCATGCGAGCAGCTGATCCGCCATTGCCGGAGTCACCTAGTGCAG | 5330 fluorescence intensity (a.u.)
AATGATTTTATGTATATATGATTAAAGAAATGAGAAACATCGGAGTCACCTAGTGCAG | 4960 fluorescence intensity (a.u.)
CATAAATTACATAGGCTCGTGGCAGTCTGCTGATCGATCGCGGAGTCACCTAGTGCAG | 18300 fluorescence intensity (a.u.)
AATTTAGGGGATTGAATGTCCTGTTTCAAAGTTCAGGGTGCGGAGTCACCTAGTGCAG | 4080 fluorescence intensity (a.u.)
TATAGATAATTTGGAGTTAGTAGTTATGGTTGGCTATACTCGGAGTCACCTAGTGCAG | 13400 fluorescence intensity (a.u.)
TATAATTATATTGGATATGCATGCATGCATTCATCTGACCCGGAGTCACCTAGTGCAG | 30100 fluorescence intensity (a.u.)

Sequence | binding signal
TAATTGATTGTAGCTCGTTGAATTCCGGTTATTCCATTACCGGAGTCACCTAGTGCAG | 34700 fluorescence intensity (a.u.)
ACATAATTAATATCTGGTCTCACCTCTCATACACACATGTCGGAGTCACCTAGTGCAG | 23900 fluorescence intensity (a.u.)
ATTTTAATTAGTTCAATACCGCGCCTTAATTGCCCTTCCACGGAGTCACCTAGTGCAG | 33200 fluorescence intensity (a.u.)
TGCAGAACAGATTGAAGTTGAGTGGAACAGTAGTCAAGTACGGAGTCACCTAGTGCAG | 8480 fluorescence intensity (a.u.)
ATAACAATTGATAAATTCACCAGTATATTATAGAAAGTGACGGAGTCACCTAGTGCAG | 12200 fluorescence intensity (a.u.)
AGCCACTGGAATTTTAGATTGGAAAAGAACACCGGTCCATCGGAGTCACCTAGTGCAG | 4620 fluorescence intensity (a.u.)
TATTTGTAATTTCAGTTGATATGACATATAAGTCCACTGTCGGAGTCACCTAGTGCAG | 8290 fluorescence intensity (a.u.)
GCAATCAGATCGTAGATTAGATAAATAATTTACGAGAAAACGGAGTCACCTAGTGCAG | 9530 fluorescence intensity (a.u.)
CCCTCATTTATTGACTGCTACTAGTAGTACCACTATAGAACGGAGTCACCTAGTGCAG | 7970 fluorescence intensity (a.u.)
TTAATTAATTGCAAATTGGAGTGCATGACCAGATGCTAATCGGAGTCACCTAGTGCAG | 29700 fluorescence intensity (a.u.)
ACAAATTAATTAGGCTAAATAAATTCGTCTCGTGGTTTACCGGAGTCACCTAGTGCAG | 49700 fluorescence intensity (a.u.)
ATCCACTCAATTACACCCTCTTCCAACATGATTTAGACCGCGGAGTCACCTAGTGCAG | 6510 fluorescence intensity (a.u.)
GTTATAATATAATTACACTTTAATTATGCTATAATTACATCGGAGTCACCTAGTGCAG | 6560 fluorescence intensity (a.u.)
GATTAATGCCAGTTATTATTTTAAACGAATCTCGTTGATCCGGAGTCACCTAGTGCAG | 5800 fluorescence intensity (a.u.)
TTGCAAAATTTAAAATTATGTTGTCATTGTAATATATTTTCGGAGTCACCTAGTGCAG | 3860 fluorescence intensity (a.u.)
ATTTCTTAATTTAATGCTATTCTGACTCCTTGCACCTCTACGGAGTCACCTAGTGCAG | 12300 fluorescence intensity (a.u.)
TAGTACTACTCATCACCAATCAGCTGCCACACATGCATGGCGGAGTCACCTAGTGCAG | 5430 fluorescence intensity (a.u.)
ATTTTCGGTTTATTTTAATTAAAACTTAATTAATCATACGCGGAGTCACCTAGTGCAG | 19300 fluorescence intensity (a.u.)
TACTAAACTTTAGGTGTAAATTAGCACTTGGCAAACTGGTCGGAGTCACCTAGTGCAG | 4250 fluorescence intensity (a.u.)
GAAACAAACATAAAATGGTGTAAATTACCTGGAATTTGTGCGGAGTCACCTAGTGCAG | 3500 fluorescence intensity (a.u.)
CCGGCAAATCATGAAATTGGCGTGTCACCATGGACGTCTCCGGAGTCACCTAGTGCAG | 8660 fluorescence intensity (a.u.)
ATTAAACTACTCTAAATTTAAATAATTTTGTAGAGAAAAGCGGAGTCACCTAGTGCAG | 8380 fluorescence intensity (a.u.)
CATGATGGGCTGAAACTTTTAGGCAACTACGAGAATTGGGCGGAGTCACCTAGTGCAG | 10700 fluorescence intensity (a.u.)
CATACATATGTAATTTACTTCGATTCGATTAAATTGGCAGCGGAGTCACCTAGTGCAG | 7090 fluorescence intensity (a.u.)
CATGTAATTGTACAAATCTACACAATTGAAAGGCATCTTCCGGAGTCACCTAGTGCAG | 27900 fluorescence intensity (a.u.)
ACAGCCAATTATTACATAATTCACATAGAAGAAAACTCACCGGAGTCACCTAGTGCAG | 12500 fluorescence intensity (a.u.)
TTAGAATGATTTACATACTGGAGTACTAGTAGTAATTCTGCGGAGTCACCTAGTGCAG | 19700 fluorescence intensity (a.u.)
